Test: label from the status in PepcDB records

Sequence | protein production
AGGHKNLPAKGDLHIPVFENVNVRFSPDTYPDNYNEADGTGVYHLVNGRIILKKITLPEYKRNVSVSLKVTLASNGDRWDKSGSCFVLPKSSAINLLTIARDGMKFPSVDSLKLEKMVGIVPGKDYLPTVELMRFMTPFGIGHYSNNNDSLSSKRRPVYIPKWESNVTWQQDITDLYPLLEGEAYVGIYIDTWTSEGYLVNADIDVKESRLACDVLPKRHVEPLMNTVYYMGQSYPDIFARRDVSTDFTVPKGAKNIRLKYIVTGHGGHSGGDEFVQKRNIISVDGKEVLNFIPWRDDCASFRRFNPATGVWLIKRLASYIGEKGYTEKEVEEPLASSDLSRSNWCPGSDVVPEEAVIGTLAPGKHTFTVSIPEAQAVDGNKLNHWLVSAYLVWEE | not failed
MGLRNLLDKVEHHFEKGGRYEKWYPLYEAVDTFLYRPGSVTRTTAHVRDGIDLKRMMIIVWLCTFPAMFFGMYNVGHQANLIFAQSPDLLSAQDGWRFALIGALAGFDPNSLWDCLVQGAAYFLPVYLTTFIVGGFWEVLFASIRRHEVNEGFFVTSVLFALTLPPSVPLWQVALGISFGVVLGKEVFGGTGKNFLNPALVGRAFLFFAYPAQMSGDAVWTSVDGFAGATSLSLAAAGGVDNILGHGLTWMDAFLGHMQGSMGETSTLAIFIGGAVLLLTRIASWRIVAGVMLGMVAMSYLFNAIGSASNPMFAMPWYWHLVTGGFAFGMIFMATDPVSASMTDTGKWLFGALIGVMVMLIRVVNPAFPEGMMLAILFANLFAPLIDHFVVQANIKRRLARNG | failed
MKVKVFRVHGYFEKNGRKFKFTKEYRGIKEEDVKELVYSDIGSKHKVKRNKIFIKEIKEIRPEEAEDIVVRRLSLELLEHHHHHH | failed
MLALEAAQLDGPHFSCLYPDGVFYDLDSCKHSSYPDSEGAPDSLWDWTVAPPVPATPYEAFDPAAAAFSHPQAAQLCYEPPTYSPAGNLELAPSLEAPGPGLPAYPTENFASQTLVPPAYAPYPSPVLSEEEDLPLDSPALEVSDSESDEALVAGPEGKGSEAGTRKKLRLYQFLLGLLTRGDMRECVWWVEPGAGVFQFSSKHKELLARRWGQQKGNRKRMTYQKLARALRNYAKTGEIRKVKRKLTYQFDSALLPAVRRA | not failed
MPQNDYIELHRKRYGYRFDHFEKERKKEARKVHKDSLKAKKLRGIKAKIYNKKKYTEKVNLKKTLKSHELKDIKSTETLKDDNGLPSYLLDRQQTKHTQILTNLIKQKRKSKCGKWQLPIPKIQALNEAEMLRVVKSGKRRRKTWKRLIDKISFVGNDFTRKNPKFERYIRPSSLRFKKANVYHSELKSTFSLDIISVKVNPQSNLYTNLGIITKGTIIEVNVSELGLVTQSGKVIWAKFAQVTNNPELDGCINATLLV | failed
